Data as given in paper PMC13423814.
The source holds more than one record for some entries. The list is limited to them. An entry can have further records. Some protein pairs were linked at several places, one record each.

Legend:
Details in all cases: DSSO, in cells
CYCS = CYCS (UniProt P99999)
PHB2 = PHB2 (UniProt Q99623)
CHMP2B = CHMP2B (UniProt Q9UQN3)
CCT8 = CCT8 (UniProt P50990)
EIF4G2 = EIF4G2 (UniProt P78344)
ERLIN2 = ERLIN2 (UniProt O94905)
CHCHD3 = CHCHD3 (UniProt Q9NX63)
EBNA1BP2 = EBNA1BP2 (UniProt Q99848)
DDX24 = DDX24 (UniProt Q9GZR7)
CNPY2 = CNPY2 (UniProt Q9Y2B0)
C1QBP = C1QBP (UniProt Q07021)
MDH2 = MDH2 (UniProt P40926)
ACIN1 = ACIN1 (UniProt Q9UKV3)
MCM2 = MCM2 (UniProt P49736)
MCM5 = MCM5 (UniProt P33992)
MCM7 = MCM7 (UniProt P33993)
HSP90B1 = HSP90B1 (UniProt P14625)
PPIB = PPIB (UniProt P23284)
TIMM50 = TIMM50 (UniProt Q3ZCQ8)
NOP58 = NOP58 (UniProt Q9Y2X3)
HADHA = HADHA (UniProt P40939)
KGD4 = KGD4 (UniProt P82909)
HKDC1 = HKDC1 (UniProt Q2TB90)
MCM6 = MCM6 (UniProt Q14566)
MRTO4 = MRTO4 (UniProt Q9UKD2)
NPM1 = NPM1 (UniProt P06748)
LRRC59 = LRRC59 (UniProt Q96AG4)
NOP16 = NOP16 (UniProt Q9Y3C1)
NUCB1 = NUCB1 (UniProt Q02818)
HNRNPD = HNRNPD (UniProt Q14103)
HNRNPK = HNRNPK (UniProt P61978)
KIF21A = KIF21A (UniProt Q7Z4S6)
GNG12 = GNG12 (UniProt Q9UBI6)
NUP153 = NUP153 (UniProt P49790)
HSP90AB4P = HSP90AB4P (UniProt Q58FF6)
NCL = NCL (UniProt P19338)
RPL4 = RPL4 (UniProt P36578)
RPS6 = RPS6 (UniProt P62753)

UniProt Q99623, sequence (Q99623 whole entry): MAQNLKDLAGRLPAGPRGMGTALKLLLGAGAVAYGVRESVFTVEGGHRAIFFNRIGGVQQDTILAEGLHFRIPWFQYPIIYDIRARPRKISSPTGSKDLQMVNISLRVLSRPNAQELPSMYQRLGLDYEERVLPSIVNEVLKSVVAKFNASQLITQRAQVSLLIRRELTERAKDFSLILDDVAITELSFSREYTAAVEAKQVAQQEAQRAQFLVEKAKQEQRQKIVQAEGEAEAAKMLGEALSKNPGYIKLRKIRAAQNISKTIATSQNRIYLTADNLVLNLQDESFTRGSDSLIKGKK
UniProt P33993, sequence (P33993 whole entry): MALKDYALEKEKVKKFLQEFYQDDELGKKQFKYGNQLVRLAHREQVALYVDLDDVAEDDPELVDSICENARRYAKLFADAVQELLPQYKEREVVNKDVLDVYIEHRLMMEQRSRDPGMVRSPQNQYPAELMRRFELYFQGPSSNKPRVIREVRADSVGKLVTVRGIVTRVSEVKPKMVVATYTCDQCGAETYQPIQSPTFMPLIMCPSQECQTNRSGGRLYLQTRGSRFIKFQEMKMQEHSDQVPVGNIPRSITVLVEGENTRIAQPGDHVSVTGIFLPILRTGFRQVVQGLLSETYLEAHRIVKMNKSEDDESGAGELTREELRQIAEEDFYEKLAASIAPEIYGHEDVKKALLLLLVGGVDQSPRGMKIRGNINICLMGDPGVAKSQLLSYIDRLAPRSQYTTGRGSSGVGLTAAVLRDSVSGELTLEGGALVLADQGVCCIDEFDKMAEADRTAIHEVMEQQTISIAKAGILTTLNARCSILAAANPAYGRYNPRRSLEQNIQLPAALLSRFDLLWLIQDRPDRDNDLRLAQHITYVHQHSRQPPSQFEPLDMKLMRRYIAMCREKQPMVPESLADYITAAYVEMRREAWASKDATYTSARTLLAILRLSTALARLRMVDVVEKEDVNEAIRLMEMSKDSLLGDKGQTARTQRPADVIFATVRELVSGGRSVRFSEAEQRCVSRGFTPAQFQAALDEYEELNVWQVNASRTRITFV
PHB1, sequence (P35232 whole entry): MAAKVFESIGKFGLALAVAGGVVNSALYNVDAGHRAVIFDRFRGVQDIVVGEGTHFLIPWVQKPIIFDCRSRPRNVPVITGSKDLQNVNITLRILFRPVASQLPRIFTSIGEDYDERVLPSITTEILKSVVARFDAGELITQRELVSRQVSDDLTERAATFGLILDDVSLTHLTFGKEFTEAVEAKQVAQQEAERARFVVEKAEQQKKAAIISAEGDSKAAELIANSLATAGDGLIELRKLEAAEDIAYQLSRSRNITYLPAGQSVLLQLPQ
MCM4, sequence (P33991 whole entry): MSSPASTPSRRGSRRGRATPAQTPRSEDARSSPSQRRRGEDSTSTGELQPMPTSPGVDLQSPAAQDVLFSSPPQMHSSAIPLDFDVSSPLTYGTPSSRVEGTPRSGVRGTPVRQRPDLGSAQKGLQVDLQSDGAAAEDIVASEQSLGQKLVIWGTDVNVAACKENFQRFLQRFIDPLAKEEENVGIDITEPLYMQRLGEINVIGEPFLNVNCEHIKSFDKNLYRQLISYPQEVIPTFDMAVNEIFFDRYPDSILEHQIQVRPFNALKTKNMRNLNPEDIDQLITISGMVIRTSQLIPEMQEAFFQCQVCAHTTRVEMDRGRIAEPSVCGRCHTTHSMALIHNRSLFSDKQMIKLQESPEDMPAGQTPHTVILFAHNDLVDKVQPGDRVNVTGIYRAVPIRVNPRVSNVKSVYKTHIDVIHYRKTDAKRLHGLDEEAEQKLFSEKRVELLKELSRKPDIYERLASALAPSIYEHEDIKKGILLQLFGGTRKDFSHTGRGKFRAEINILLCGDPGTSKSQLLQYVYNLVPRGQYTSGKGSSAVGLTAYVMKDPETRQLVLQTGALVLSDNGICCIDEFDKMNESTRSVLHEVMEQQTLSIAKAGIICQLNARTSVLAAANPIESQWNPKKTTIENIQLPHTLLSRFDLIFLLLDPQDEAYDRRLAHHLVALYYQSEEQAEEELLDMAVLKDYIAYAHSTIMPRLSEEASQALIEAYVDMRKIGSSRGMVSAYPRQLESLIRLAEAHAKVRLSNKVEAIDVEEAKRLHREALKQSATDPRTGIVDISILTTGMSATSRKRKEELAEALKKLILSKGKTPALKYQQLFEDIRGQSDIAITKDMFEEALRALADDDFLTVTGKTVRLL
HSP90B1, P14625, sequence (P14625 whole entry): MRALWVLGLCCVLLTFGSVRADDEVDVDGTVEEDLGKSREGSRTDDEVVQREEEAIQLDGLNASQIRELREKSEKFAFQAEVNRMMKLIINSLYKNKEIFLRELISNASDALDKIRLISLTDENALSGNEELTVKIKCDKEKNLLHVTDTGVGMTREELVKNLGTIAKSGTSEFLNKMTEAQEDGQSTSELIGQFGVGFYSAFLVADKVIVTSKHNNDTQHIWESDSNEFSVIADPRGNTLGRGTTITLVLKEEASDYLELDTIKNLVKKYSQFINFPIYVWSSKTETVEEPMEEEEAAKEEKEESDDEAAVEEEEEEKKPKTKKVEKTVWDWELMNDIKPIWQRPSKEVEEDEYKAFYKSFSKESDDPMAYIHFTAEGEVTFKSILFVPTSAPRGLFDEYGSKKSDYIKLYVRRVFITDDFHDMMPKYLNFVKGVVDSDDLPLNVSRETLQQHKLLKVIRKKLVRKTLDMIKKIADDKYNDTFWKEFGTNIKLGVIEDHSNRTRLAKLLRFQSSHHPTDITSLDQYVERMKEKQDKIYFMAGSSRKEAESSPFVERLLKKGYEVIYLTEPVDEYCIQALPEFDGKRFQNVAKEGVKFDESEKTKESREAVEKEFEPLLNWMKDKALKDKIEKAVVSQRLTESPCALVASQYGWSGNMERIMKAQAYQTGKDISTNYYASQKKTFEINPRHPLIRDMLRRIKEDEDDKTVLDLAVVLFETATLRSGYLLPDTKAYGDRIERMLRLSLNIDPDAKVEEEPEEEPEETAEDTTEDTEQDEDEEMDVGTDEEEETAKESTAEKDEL
UniProt P82909, sequence (P82909 whole entry): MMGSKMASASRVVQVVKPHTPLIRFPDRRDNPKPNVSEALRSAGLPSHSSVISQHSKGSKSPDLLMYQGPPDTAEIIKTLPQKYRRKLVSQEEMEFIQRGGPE
ERLIN1, sequence (O75477 whole entry): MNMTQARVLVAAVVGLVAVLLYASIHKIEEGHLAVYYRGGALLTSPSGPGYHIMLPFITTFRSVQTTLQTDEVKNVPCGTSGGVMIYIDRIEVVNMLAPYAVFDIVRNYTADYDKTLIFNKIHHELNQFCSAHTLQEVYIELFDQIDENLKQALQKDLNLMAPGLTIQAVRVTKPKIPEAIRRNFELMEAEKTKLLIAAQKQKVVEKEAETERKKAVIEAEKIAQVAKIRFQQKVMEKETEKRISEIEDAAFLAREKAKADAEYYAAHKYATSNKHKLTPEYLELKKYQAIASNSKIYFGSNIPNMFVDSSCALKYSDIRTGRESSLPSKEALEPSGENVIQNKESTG
UniProt Q14103, sequence (Q14103 whole entry): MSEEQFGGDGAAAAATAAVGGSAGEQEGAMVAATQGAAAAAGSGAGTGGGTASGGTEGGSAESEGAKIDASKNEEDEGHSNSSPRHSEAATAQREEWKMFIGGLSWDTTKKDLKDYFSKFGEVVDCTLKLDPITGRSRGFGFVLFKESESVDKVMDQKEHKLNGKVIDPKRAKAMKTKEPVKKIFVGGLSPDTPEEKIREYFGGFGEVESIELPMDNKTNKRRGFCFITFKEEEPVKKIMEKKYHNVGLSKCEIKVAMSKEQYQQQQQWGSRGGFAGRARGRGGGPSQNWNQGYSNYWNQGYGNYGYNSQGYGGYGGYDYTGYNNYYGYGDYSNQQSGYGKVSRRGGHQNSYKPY
MCM3, sequence (P25205 whole entry): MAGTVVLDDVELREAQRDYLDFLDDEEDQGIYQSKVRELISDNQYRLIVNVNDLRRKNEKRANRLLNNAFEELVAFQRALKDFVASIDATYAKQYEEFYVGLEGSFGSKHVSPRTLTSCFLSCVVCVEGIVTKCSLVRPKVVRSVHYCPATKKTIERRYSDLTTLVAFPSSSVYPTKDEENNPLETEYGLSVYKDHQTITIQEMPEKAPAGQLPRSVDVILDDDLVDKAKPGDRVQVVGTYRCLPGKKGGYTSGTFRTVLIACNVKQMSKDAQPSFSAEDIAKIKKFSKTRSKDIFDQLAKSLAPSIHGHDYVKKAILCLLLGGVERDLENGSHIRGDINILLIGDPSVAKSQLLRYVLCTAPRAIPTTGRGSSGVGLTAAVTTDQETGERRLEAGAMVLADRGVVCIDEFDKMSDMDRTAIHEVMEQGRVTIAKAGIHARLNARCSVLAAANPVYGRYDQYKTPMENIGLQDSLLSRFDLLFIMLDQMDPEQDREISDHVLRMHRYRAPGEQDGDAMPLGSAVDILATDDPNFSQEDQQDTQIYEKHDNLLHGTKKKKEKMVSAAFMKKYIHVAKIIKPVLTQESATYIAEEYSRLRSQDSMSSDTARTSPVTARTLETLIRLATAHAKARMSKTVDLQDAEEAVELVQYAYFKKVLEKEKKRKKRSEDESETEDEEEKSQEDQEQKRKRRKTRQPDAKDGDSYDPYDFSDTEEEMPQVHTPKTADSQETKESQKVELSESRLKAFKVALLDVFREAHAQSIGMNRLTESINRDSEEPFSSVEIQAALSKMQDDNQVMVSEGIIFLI
ATP5MG, sequence (O75964 whole entry): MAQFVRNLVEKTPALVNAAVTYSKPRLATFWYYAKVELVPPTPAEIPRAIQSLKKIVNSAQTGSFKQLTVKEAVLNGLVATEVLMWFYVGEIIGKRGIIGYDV
UniProt Q9NX63, sequence (Q9NX63 whole entry): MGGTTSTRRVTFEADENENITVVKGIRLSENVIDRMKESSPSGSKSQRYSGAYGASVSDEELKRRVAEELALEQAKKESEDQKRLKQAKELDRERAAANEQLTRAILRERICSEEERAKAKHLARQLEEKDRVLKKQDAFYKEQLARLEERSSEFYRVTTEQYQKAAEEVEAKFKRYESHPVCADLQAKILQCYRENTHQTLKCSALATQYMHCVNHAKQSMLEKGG
HSP90B1, sequence (P14625 whole entry): as the sequence (P14625 whole entry) above

## PHB1, P35232
CYCS
  cross-linked residues: K208 - T41 and K208 - K54
PHB2
  cross-linked residues: K83 - K200 and K128 - K89 and K186 - K97 and K186 - K200 and K202 - K200 and K202 - K216 and K202 - K224 and K202 - K262 and K207 - K236

## CHMP1B, Q7LBR1
CHMP2B
  cross-linked residues: K87 - K130 and K90 - K130

## TCP1, P17987
CCT8
  cross-linked residues: K494 - K466 and K532 - K7

## EIF4A1, P60842
EIF4G2
  cross-linked residues: K369 - K41 and K381 - K41

## ERLIN1, O75477
ERLIN2
  cross-linked residues: K277 - K287 and K286 - K275 and K287 - K285 and K330 - K287

## IMMT, Q16891
CHCHD3
  cross-linked residues: K269 - K45 and K282 - K165 and K423 - K45 and K436 - K45 and K451 - S44

## RRS1, Q15050
EBNA1BP2
  cross-linked residues: K184 - K127 and K184 - K229

## RPL18A, Q02543
DDX24
  cross-linked residues: K41 - K17 and K41 - K21

## HSP90B1, P14625
CNPY2
  cross-linked residues: K161 - K49 and K168 - K49

## HSPA9, P38646
C1QBP
  cross-linked residues: K135 - K123 and K291 - K123
MDH2
  cross-linked residues: K138 - K239 and K206 - K239 and K300 - K239 and K394 - K239 and K567 - K239 and K612 - K239 and K625 - K239 and K671 - K239 and K678 - K239

## PNN, Q9H307
ACIN1
  cross-linked residues: K157 - K970 and K157 - K986 and K157 - K1073

## CCT3, P49368
CCT8
  cross-linked residues: K21 - K7 and K21 - K16 and K21 - K20 and K21 - K459 and K31 - K20

## MCM3, P25205
MCM2
  cross-linked residues: K732 - K734 and K736 - K510
MCM5
  cross-linked residues: K248 - K272 and K688 - K581 and T694 - K581 and K732 - K581
MCM7
  cross-linked residues: K152 - K10 and K435 - K236

## PDIA4, P13667
HSP90B1
  cross-linked residues: K245 - K547 and K294 - K72 and K570 - K603
PPIB
  cross-linked residues: K211 - K84 and K245 - K116

## SDHA, P31040
MDH2
  cross-linked residues: K167 - K239 and K250 - K239 and K335 - K239
TIMM50
  cross-linked residues: K167 - T46 and K335 - T46

## HEATR1, Q9H583
NOP58
  cross-linked residues: K84 - K422 and K1348 - K37

## ATP5MG, O75964
HADHA
  cross-linked residues: K24 - K569 and K55 - K569 and K55 - K625 and K55 - K634

## DLD, P09622
KGD4
  cross-linked residues: K159 - K57 and K417 - K17 and K417 - K33 and K445 - K17 and K445 - K33 and K445 - S56
MDH2
  cross-linked residues: K159 - K239 and K277 - K239 and K430 - K239 and K445 - K239

## HK1, P19367
HKDC1
  cross-linked residues: K624 - K102 and K738 - K102

## FDXR, P22570
MDH2
  cross-linked residues: K209 - K239 and K287 - K239

## MCM4, P33991
MCM6
  cross-linked residues: K490 - K407 and K549 - K205
MCM7
  cross-linked residues: K220 - K96 and K409 - K174 and K409 - K236 and K627 - K596

## CCDC86, Q9H6F5
MRTO4
  cross-linked residues: K215 - T108 and K215 - K205 and S224 - S93 and K229 - S93

## RSL1D1, O76021
NPM1
  cross-linked residues: K395 - K141 and K395 - K215 and K408 - K141

## SEC61B, P60468
LRRC59
  cross-linked residues: K20 - K73 and K20 - K201

## RPL13, P26373
NOP16
  cross-linked residues: K136 - K106 and K136 - K107

## NUCB2, P80303
NUCB1
  cross-linked residues: K364 - K364 and K370 - K364

## HNRNPDL, O14979
HNRNPD
  cross-linked residues: S141 - T193 and S141 - S250 and K162 - T193 and K212 - K114 and K212 - K119
HNRNPK
  cross-linked residues: K142 - K60 and K302 - K198

## PSMD3, O43242
KIF21A
  cross-linked residues: K315 - K847 and K325 - K847 and K404 - K847

## GNA13, Q14344
GNG12
  cross-linked residues: K94 - K4 and K204 - K4

## TPR, P12270
NUP153
  cross-linked residues: K477 - K353 and K477 - K356

## HSP90AA1, P07900
HSP90AB4P
  cross-linked residues: K489 - K446 and K585 - K446

## NPM1, P06748
NCL
  cross-linked residues: S139 - K71 and S149 - K102
RPL4
  cross-linked residues: K141 - K294 and S149 - K294 and S149 - K364
RPS6
  cross-linked residues: K32 - K243 and K141 - K119 and K141 - K164 and K141 - K211 and K141 - K230
